# Reference: publication PMC4336329 (PLoS ONE, 2015)
# In all, about 310,000 compounds went through this assay and about 2,200 (0.71%) showed an effect of 50% or more. Effects have a minus sign here. The list shows a part of the results.
# Biological target: human ether-à-go-go-related gene (hERG) potassium channel (human, UniProt Q12809)
# Assay: primary screen, population patch clamp on CHO cells stably expressing hERG
# Chain of human ether-à-go-go-related gene (hERG) potassium channel (Q12809 whole entry, looked up): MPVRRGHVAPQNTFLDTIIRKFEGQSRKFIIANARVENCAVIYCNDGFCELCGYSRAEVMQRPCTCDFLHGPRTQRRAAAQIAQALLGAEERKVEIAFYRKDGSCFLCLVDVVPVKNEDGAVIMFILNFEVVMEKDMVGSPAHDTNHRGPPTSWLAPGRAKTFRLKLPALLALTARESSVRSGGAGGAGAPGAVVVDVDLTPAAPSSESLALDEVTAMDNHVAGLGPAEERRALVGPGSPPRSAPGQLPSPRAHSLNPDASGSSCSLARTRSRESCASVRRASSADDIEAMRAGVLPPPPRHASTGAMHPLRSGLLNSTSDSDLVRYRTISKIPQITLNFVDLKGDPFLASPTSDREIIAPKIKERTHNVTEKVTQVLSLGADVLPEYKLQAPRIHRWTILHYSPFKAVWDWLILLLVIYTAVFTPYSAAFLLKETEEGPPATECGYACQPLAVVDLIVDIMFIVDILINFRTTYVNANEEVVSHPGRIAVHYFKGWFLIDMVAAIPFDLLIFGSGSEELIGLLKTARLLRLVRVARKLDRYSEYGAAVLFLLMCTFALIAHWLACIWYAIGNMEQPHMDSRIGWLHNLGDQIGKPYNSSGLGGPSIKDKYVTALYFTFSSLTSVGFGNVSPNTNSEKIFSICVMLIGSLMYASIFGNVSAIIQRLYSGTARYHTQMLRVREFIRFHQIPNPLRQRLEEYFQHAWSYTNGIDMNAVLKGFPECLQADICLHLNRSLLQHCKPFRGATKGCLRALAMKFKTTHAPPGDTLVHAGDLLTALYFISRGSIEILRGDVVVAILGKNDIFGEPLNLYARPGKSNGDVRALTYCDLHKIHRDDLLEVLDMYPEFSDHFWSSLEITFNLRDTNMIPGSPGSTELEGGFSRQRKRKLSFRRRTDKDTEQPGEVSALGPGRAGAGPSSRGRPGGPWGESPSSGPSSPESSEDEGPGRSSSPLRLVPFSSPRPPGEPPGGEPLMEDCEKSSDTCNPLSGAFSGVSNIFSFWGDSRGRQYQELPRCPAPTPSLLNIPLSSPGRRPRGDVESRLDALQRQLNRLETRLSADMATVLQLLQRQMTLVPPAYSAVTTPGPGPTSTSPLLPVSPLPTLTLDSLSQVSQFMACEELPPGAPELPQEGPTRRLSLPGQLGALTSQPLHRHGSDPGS
row,SMILES,"hERG current change (%, negative = inhibition) at 1uM [%]"
1,CCCCCC1CCC(c2n[nH]c(=S)n2C)CC1 (stereo not shown),6.3
2,CCC(C)N(C(=O)CSc1ncnc2c1cnn2-c1ccccc1)C1CCS(=O)(=O)C1 (stereo not shown),9.25
3,COc1ccc(C(=O)Nc2nc3ccc(S(C)(=O)=O)cc3s2)cc1,15.4
4,CC1(C)CC(CC(=O)NNc2nc(-c3ccccc3)cs2)C(=O)O1 (stereo not shown),4.12
5,O=C1C2CCCN2C(c2ccc(F)cc2)N1c1cccc(Cl)c1 (stereo not shown),8.69
6,Nc1ccc(-n2nnnc2CN2CCOCC2)cc1,11.1
7,CCN(C1CCCCC1)S(=O)(=O)c1ccc(S(=O)(=O)N(CC(=O)Nc2ccccc2)C2CC2)cc1,-6.64
8,Cc1c(C)n(Cc2ccc(Cl)cc2)c2ccc(C(=O)NCCN3CCOCC3)cc12,14.7
9,COc1ccc(C(=O)OCC(=O)Nc2ccc([N+](=O)[O-])cc2OC)c(O)c1,-2.02
10,O=C1c2ccccc2C(=O)N1CC(=O)N1c2ccccc2Sc2ccc(C(F)(F)F)cc21,-2.06
11,COc1ccc(CSc2nc(C)cc(=O)[nH]2)cc1Br,12.7
12,CCCC(=O)Nc1sc(Cc2ccccc2)c(C)c1C(N)=O,8.37
13,CCCNC(=O)Nc1ccc(NC(C)=O)cc1,-12.2
14,O=C(O)CCNC(=O)/C(=C\C=C\c1ccccc1)NC(=O)c1ccccc1,17.7
15,CCc1ccc(OCCCCCn2ccnc2)cc1,12.8
16,CCCOC(=O)CC1C(=O)NCCN1Cc1cc(OC)cc(OC)c1 (stereo not shown),-0.865
17,OCC[C@@H]1C[C@@H](O)[C@H](O)[C@]2(OCCCc3ccccc32)O1,16.6
18,O=C(NCCCN1CCOCC1)c1ccc(Cl)c([N+](=O)[O-])c1,9.74
19,Cc1ccc(-c2nc(N/N=C/c3ccncc3)c3ccccc3n2)cc1,3.75
20,Cc1cc2nc(SCCOC(=O)Nc3ccccc3)nc(C)c2cc1C,14.9
21,CCC(=O)N1CCN(c2ccc(Cl)cc2NC(=O)c2ccc([N+](=O)[O-])o2)CC1,0.198
22,COc1ccccc1N1CCN(C(=O)C2CCN(S(=O)(=O)c3ccc4c(c3)CC(C)N4C(=O)C3CC3)CC2)CC1 (stereo not shown),4.54

row,SMILES,"hERG current change (%, negative = inhibition) at 1uM [%]"
1,Cc1ccnc(NC(c2ccsc2)c2ccc3ccc(C)nc3c2O)c1 (stereo not shown),4.33
2,CCOC(=O)c1c(NC(=O)CC2SC(N)=NC2=O)sc2c1CCC(C)C2 (stereo not shown),9.99
3,Cn1c(=O)cc(N2CCOCC2)[nH]c1=O,-3.26
4,Cc1c(CC(=O)NCCC(C)C)c(=O)oc2cc3c(cc12)CCC(C)(C)O3,17.9
5,CN(C)C=NC(=O)c1ccc([N+](=O)[O-])c(CS(=O)(=O)c2ccc(Cl)cc2)c1,-12.3
6,Nn1c(SCc2ccc(Br)cc2)nnc1-c1cccnc1,21.3
7,COc1ccc(C(CNC(=O)c2cccc(NS(=O)(=O)c3ccccc3)c2)N(C)C)cc1 (stereo not shown),-7.23
8,COC(=O)N/N=C/c1cc(OC)c(O)c([N+](=O)[O-])c1,8.28
9,CCN(C(=O)COc1ccccc1C(=O)NCc1ccccc1)C1CCS(=O)(=O)C1 (stereo not shown),4.74
10,CCCOc1ccc(C(=O)Nc2ccc(Cl)cn2)cc1,8.54
11,O=C(N/N=C/C=C/c1ccccc1)c1n[nH]c2c1CCC2,18.3
12,COc1ccccc1N(CC(=O)Nc1cc(C)on1)S(=O)(=O)c1cccc(C(F)(F)F)c1,0.88
13,CCC[C@@H](OS(N)(=O)=O)[C@@H](Cc1ccccc1)C(=O)OCC,-1.64
14,CCOC(=O)C(Cc1ccccc1)C(=O)NCc1cccnc1 (stereo not shown),14.7
15,COc1ccc(/C=C/C(=O)N2CCN(C)CC2)cc1S(=O)(=O)N1CCCCC1,14.4
16,COc1ccc(-c2nc3nc(SC)nn3cc2C)cc1F,2.46
17,COc1ccc(CNC(=O)c2cc3cccc(O)c3oc2=N)cc1,14.6
18,CCS(=O)(=O)c1ccc2oc(SCC(=O)NC34CC5CC(CC(C5)C3)C4)nc2c1,-1.41
19,COc1ccc2cc(C(=O)N3CCN(Cc4ccc5c(c4)OCO5)CC3)[nH]c2c1,7.86
20,CCc1ccc([C@@H]2CC=C(C(=O)O)[C@H](c3cccc(Cl)c3)N2S(=O)(=O)c2ccc(C)cc2)cc1,17.4
21,CNc1c(NS(=O)(=O)c2ccc(Cl)s2)c(=O)oc2ccccc12,11.2
